# The supplement of paper PMC12217912
# The other results are listed elsewhere or left out. The full chains were built here from the parent and the listed change. Values near 0.05 are background.
# B1: TEV protease; numbered along this chain (parent)
# chain: MGESLFKGPRDYNPISSSICHLTNESDGHTTSLYGIGFGPFIITNKHLFRRNNGTLVVQSLHGVFKVKDTTTLQQHLVDGRDMIIIRMPKDFPPFPQKLKFREPQREERICLVTTNFQTKSMSSMVSDTSCTFPSGDGIFWKHWIQTKDGQCGSPLVSTRDGFIVGIHSASNFTNTNNYFTSVPKNFMELLTNQEAQQWVSGWRLNADSVLWGGHKVFMVKPEEPFQPVKEATQL
# Variants of: B1
# Assay: raw area under fraction-flipped curve 0-4 h after induction (AUC4h, not background-subtracted), DNA-recorder readout of cleavage of the substrate (dimensionless); higher = more cleavage of the substrate by the protease variant
# Conditions: temperature: 34 °C; time window: 0-4 h after rhamnose induction
# Protocol: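 In vivo DNA recorder in E. coli TOP10(DE3) ΔrhaA at 34 °C. Each TEVp single-site mutant (parent TEVp 0) is paired with a single-site variant of the 7-mer TEVs (canonical ENLYFQ|S). The substrate sits between flexible linkers in a Bxb1-sfGFP-TEVs-SsrA fusion, so cleavage stabilises Bxb1 and speeds flipping of a recombination array, read by NGS. The value is the raw area under the fraction-flipped curve over 0-4 h after rhamnose induction (AUC4h), with ≥20 reads per time point. It is not background-subtracted; inactive controls average about 0.047.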
# 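Note: Bxb1 expression induced with 0.2% (w/v) L-rhamnose at OD600 near 0.5, cultures sampled hourly, flipped fraction per protease–substrate barcode pair counted by paired-end Illumina sequencing.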
Variant,area with substrate ENLYAQS,area with substrate ENLYDQS,area with substrate ENLYEQS,area with substrate ENLYGQS,area with substrate ENLYHQS,area with substrate ENLYIQS,area with substrate ENLYKQS,area with substrate ENLYPQS,area with substrate ENLYRQS,area with substrate ENLYSQS,area with substrate ENLYTQS,area with substrate ENLYVQS,area with substrate ENLYWQS,area with substrate ENLYCQS,area with substrate ENLYMQS,area with substrate ENLYQQS,area with substrate ENLYYQS,area with substrate ENLYLQS,area with substrate ENLYNQS
I164A,0.0537,0.0514,0.0683,0.0701,0.0541,0.0694,0.0496,0.0588,0.0547,0.039,0.0511,0.0632,0.0594,–,–,–,–,–,–
G162C,0.0743,0.06,0.0681,0.0622,0.067,0.0919,0.0283,0.0725,0.067,0.0691,–,0.136,0.0619,0.088,0.08,0.0616,0.0717,–,–
Q198K,0.0844,0.0504,0.075,–,0.07,0.0536,0.0704,0.085,0.0678,0.0809,–,0.135,0.0817,–,0.0822,–,0.0969,0.0936,0.0517
L56S,0.069,0.0455,0.0497,0.0434,0.0416,0.112,0.0357,0.0338,–,0.0519,0.0563,0.0504,0.0372,–,0.0448,0.0408,0.0397,–,0.054
L56C,0.086,–,0.0568,–,–,0.0941,0.0542,0.062,–,–,0.0662,0.02,0.0747,–,–,–,0.0319,–,0.0332
E224H,0.0722,0.0593,–,0.0521,–,–,0.026,–,0.0887,0.0809,0.072,–,0.0786,0.0884,–,–,0.0756,–,0.0863
F226C,0.0625,–,0.0592,0.057,0.0608,0.129,0.0641,0.0844,–,–,–,0.113,0.0797,0.109,–,–,0.0548,–,0.0493
P96F,0.0682,0.0584,0.0754,0.0465,0.0717,–,–,0.0688,0.0675,0.0712,–,0.119,0.0761,–,0.0918,–,–,–,0.0881
P96L,0.0725,0.0494,–,–,0.0691,–,–,0.0632,–,–,–,–,0.0695,–,–,–,0.0716,–,0.066
R204K,0.0932,0.0575,0.0513,–,0.0628,–,0.0644,–,0.061,0.0818,0.0841,–,–,0.0839,0.0888,0.0611,–,–,0.0706
G150E,0.0612,0.0581,0.0651,0.0482,0.0669,0.0614,0.0578,0.0581,0.0592,0.0267,0.0683,0.0557,0.064,0.0634,0.0551,0.0599,0.0517,0.0538,0.0576
C152E,0.0579,0.0698,0.0687,0.0585,0.0554,0.0521,0.0528,0.0638,0.0625,0.067,0.065,0.0598,0.0908,0.0691,0.0669,0.0588,0.0553,0.0724,0.0695
I43R,0.0379,0.0378,0.0489,0.0445,0.0419,0.0693,0.068,–,0.0364,0.0472,–,0.038,0.0528,0.0441,–,0.052,0.0423,–,0.053
K216H,0.0622,–,0.0578,0.0662,0.0657,0.0835,0.0596,0.0729,0.0534,0.145,–,0.108,–,–,0.075,0.068,0.0718,–,0.0619
A232H,0.0635,0.0596,0.0732,0.043,0.0941,0.133,0.0613,–,0.0618,–,–,–,0.0776,–,–,–,–,–,0.0733
A232W,0.0582,–,0.0803,0.066,0.0563,0.136,0.0741,0.059,0.0496,0.064,0.095,0.101,0.0751,–,0.0566,–,–,–,0.0526
S4D,0.0936,0.0729,0.0792,0.0783,0.0694,0.164,0.0609,0.0721,–,0.0813,–,0.148,0.0998,0.084,0.0945,0.0615,–,–,0.0533
G136R,0.0787,0.0549,0.0569,–,0.0714,0.0767,0.0131,0.0754,0.0586,0.0839,0.0971,0.108,0.0738,0.102,0.08,0.0457,0.0572,–,0.0683
K142G,0.0674,0.0578,0.0671,0.0479,0.0733,0.111,0.0672,0.0666,0.061,–,0.0707,0.0915,–,0.0687,0.0651,0.062,0.0576,0.0608,0.0617
S32Y,0.0758,0.0592,0.0574,0.0597,0.0688,0.111,0.0534,0.0865,0.0644,0.112,–,0.101,0.0764,–,0.0781,–,0.0577,0.0915,0.0694
S32G,0.0619,0.057,0.0677,0.0464,0.0474,0.129,0.0697,0.0708,0.0541,0.0724,0.0825,–,0.0859,–,0.0763,0.0556,–,–,0.0544
S16L,0.0723,0.0745,0.108,0.0789,0.0601,0.135,0.0462,0.0774,0.0564,–,–,0.112,–,0.113,0.078,0.0599,–,0.0736,0.0753
S16D,0.0759,0.0588,0.0673,–,0.0679,0.127,0.0625,0.0694,–,0.0675,0.0752,–,0.0041,–,0.0783,0.041,0.0505,–,0.0653
S16E,0.0766,0.0633,0.0644,0.0658,0.0699,0.106,0.0481,0.0755,0.0663,–,–,0.109,0.064,0.0876,0.0807,–,0.0662,–,0.0614
D208N,0.0796,0.0664,0.0787,0.0564,–,0.106,0.0595,0.0742,–,0.0701,–,–,–,–,0.074,–,0.0522,–,–
